Molecules are shown by their SMILES. pIC50: −log10 of the molar value.

This test deals with CtermHisTag-mEGFR Triple Mutant (R797S, L858R, T790M) (Homo sapiens, UniProt P00533, C797S/L858R/T790M). Nature of the test: TR-FRET probe displacement, EGFR triple mutant. Particulars: 1.25 nM EGFR, 100 nM probe, 30 mins room temperature.
In the case of `C=CC(=O)Nc1cc(=O)n(-c2ccccc2)c2nc(Nc3ccccc3OC)ncc12` [Example 2, N-(2-((2-Methoxyphenyl)amino)-7-oxo-8-phenyl-7,8-dihydropyrido[2,3-d]pyrimidin-5-yl)acrylamide], the pIC50 was above 7.70.
Under `C#Cc1cc(=O)n(-c2ccccc2)c2cc(Nc3ccccc3OC)ncc12` [Example 3, 4-Ethynyl-7-[(2-methoxyphenyl)amino]-1-phenyl-1,6-naphthyridin-2-one] stands 6.00 to 7.00; under `C#Cc1nc(=O)n(-c2ccccc2)c2nc(Nc3ccccc3OC)ncc12` [Example 4, 4-Ethynyl-7-[(2-methoxyphenyl)amino]-1-phenylpyrimido[4,5-d][1,3]diazin-2-one], above 7.70; under `C#Cc1cc(=O)n(-c2ccccc2)c2nc(Nc3ccccc3)ncc12` [Example 5], 6.00 to 7.00.
`C#Cc1cc(=O)n(-c2ccccc2)c2nc(Nc3ccc(N4CCOCC4)cc3)ncc12` [Example 6, 5-Ethynyl-2-((4-morpholinophenyl)amino)-8-phenylpyrido[2,3-d]pyrimidin-7(8H)-one] gave a pIC50 above 7.70.
The result for `C#Cc1cc(=O)n(-c2ccccc2)c2nc(Nc3ccc(N(C)C(=O)CN(C)C)cc3OC)ncc12` [Example 7, 2-(Dimethylamino)-N-(4-((5-ethynyl-7-oxo-8-phenyl-7,8-dihydropyrido[2,3-d]pyrimidin-2-yl)amino)-3-methoxyphenyl)-N-methylacetamide] reads above 7.70.
The result for `C#Cc1cc(=O)n(-c2ccccc2)c2nc(Nc3ccc(N(C)CCCN(C)C)cc3)ncc12` [Example 9, 2-((4-((3-(Dimethylamino)propyl)(methyl)amino)phenyl)amino)-5-ethynyl-8-phenylpyrido[2,3-d]pyrimidin-7(8H)-one] reads above 7.70; that for `C#Cc1cc(=O)n(-c2ccccc2)c2nc(NC3CCN(S(C)(=O)=O)CC3)ncc12` [Example 10, 5-Ethynyl-2-((1-(methylsulfonyl)piperidin-4-yl)amino)-8-phenylpyrido[2,3-d]pyrimidin-7(8H)-one], 6.00 to 7.00; that for `C#Cc1cc(=O)n(-c2ccccc2)c2nc(Nc3ccc(N4CCN(C)CC4)c(C)c3)ncc12` [Example 12, 5-Ethynyl-2-{[3-methyl-4-(4-methylpiperazin-1-yl)phenyl]amino}-8-phenylpyrido[2,3-d]pyrimidin-7-one], above 7.70.
The result for `C#Cc1cc(=O)n(-c2ccccc2)c2nc(Nc3ccc(OCCN(C)C)cc3)ncc12` [Example 13, 2-({4-[2-(Dimethylamino)ethoxy]phenyl}amino)-5-ethynyl-8-phenylpyrido[2,3-d]pyrimidin-7-one] reads above 7.70.
`C#Cc1cc(=O)n(-c2ccccc2)c2nc(Nc3ccc(N4CCNCC4)cc3)ncc12` [Example 14, 5-Ethynyl-8-phenyl-2-{[4-(piperazin-1-yl)phenyl]amino}pyrido[2,3-d]pyrimidin-7-one]: the pIC50 was above 7.70.
`C#Cc1cc(=O)n(-c2ccccc2)c2nc(Nc3ccc(N4CCN(CC)CC4)cc3)ncc12` [Example 15, 2-{[4-(4-Ethylpiperazin-1-yl)phenyl]amino}-5-ethynyl-8-phenylpyrido[2,3-d]pyrimidin-7-one] had a negative-log IC50 (pIC50) above 7.70.
Consider `C#Cc1cc(=O)n(-c2ccccc2)c2nc(Nc3ccc(N4CCN(C(C)C)CC4)cc3)ncc12` [Example 16, 5-Ethynyl-2-{[4-(4-isopropylpiperazin-1-yl)phenyl]amino}-8-phenylpyrido[2,3-d]pyrimidin-7-one], for which the pIC50 is above 7.70.
Under `C#Cc1cc(=O)n(-c2ccccc2)c2nc(Nc3ccc(N4CCN(CCO)CC4)cc3)ncc12` [Example 17, 5-ethynyl-2-({4-[4-(2-hydroxyethyl)piperazin-1-yl]phenyl}amino)-8-phenylpyrido[2,3-d]pyrimidin-7-one] stands above 7.70; under `C#Cc1cc(=O)n(-c2ccccc2)c2nc(Nc3ccc(N4CCN(C5COC5)CC4)cc3)ncc12` [Example 18, 5-Ethynyl-2-({4-[4-(oxetan-3-yl)piperazin-1-yl]phenyl}amino)-8-phenylpyrido[2,3-d]pyrimidin-7-one], above 7.70.
The result for `C#Cc1cc(=O)n(-c2ccccc2)c2nc(Nc3cnn(C4CCN(C)CC4)c3)ncc12` [Example 19, 5-Ethynyl-2-{[1-(1-methylpiperidin-4-yl)pyrazol-4-yl]amino}-8-phenylpyrido[2,3-d]pyrimidin-7-one] reads 7.00 to 7.70; that for `C#Cc1cc(=O)n(-c2ccccc2)c2nc(Nc3ccc(N4CCCNCC4)cc3)ncc12` [Example 20, 2-{[4-(1,4-Diazepan-1-yl)phenyl]amino}-5-ethynyl-8-phenylpyrido[2,3-d]pyrimidin-7-one], above 7.70.
Turning to `C#Cc1cc(=O)n(-c2ccccc2)c2nc(Nc3ccc(C4CCN(C)CC4)cc3)ncc12` [Example 21, 5-Ethynyl-2-{[4-(1-methylpiperidin-4-yl)phenyl]amino}-8-phenylpyrido[2,3-d]pyrimidin-7-one], the pIC50 was above 7.70.
The result for `C#Cc1cc(=O)n(-c2ccccc2)c2nc(Nc3ccc(C4CCNCC4)cc3)ncc12` [Example 22, 5-Ethynyl-8-phenyl-2-{[4-(piperidin-4-yl)phenyl]amino}pyrido[2,3-d]pyrimidin-7-one] reads above 7.70; that for `C#Cc1cc(=O)n(-c2ccccc2)c2nc(Nc3ccc(N4CCC(N5CCN(C)CC5)CC4)cc3)ncc12` [Example 23, 5-Ethynyl-2-({4-[4-(4-methylpiperazin-1-yl)piperidin-1-yl]phenyl}amino)-8-phenylpyrido[2,3-d]pyrimidin-7-one], above 7.70.
As to `C#Cc1cc(=O)n(-c2ccccc2)c2nc(Nc3ccc(N4CCN(C)CC4)c(CC)c3)ncc12` [Example 24, 2-{[3-Ethyl-4-(4-methylpiperazin-1-yl)phenyl]amino}-5-ethynyl-8-phenylpyrido[2,3-d]pyrimidin-7-one], the pIC50 is above 7.70.
Under `C#Cc1cc(=O)n(-c2ccccc2)c2nc(Nc3cnn(C)c3)ncc12` [Example 25, 5-Ethynyl-2-[(1-methylpyrazol-4-yl)amino]-8-phenylpyrido[2,3-d]pyrimidin-7-one] stands above 7.70; under `C#Cc1cc(=O)n(-c2ccccc2)c2nc(Nc3ccc4c(c3)CCNCC4)ncc12` [Example 26, 5-ethynyl-8-phenyl-2-(2,3,4,5-tetrahydro-1H-3-benzazepin-7-ylamino)pyrido [2,3-d]pyrimidin-7-one], above 7.70; under `C#Cc1cc(=O)n(-c2ccccc2)c2nc(Nc3ccc(N4CCNC(C)C4)cc3)ncc12` (centres unmarked) [Example 27, 5-Ethynyl-2-{[4-(3-methylpiperazin-1-yl)phenyl]amino}-8-phenylpyrido[2,3-d]pyrimidin-7-one], above 7.70.
For the molecule `C#Cc1cc(=O)n(-c2ccccc2)c2nc(Nc3ccc(N4CCC(N5CC(CO)C5)CC4)cc3)ncc12` [Example 28], the pIC50 was above 7.70.
The result for `C#Cc1cc(=O)n(-c2ccccc2)c2nc(Nc3ccc(N4CCC(N5CC(N(C)C)C5)CC4)cc3)ncc12` [Example 29, 2-[(4-{4-[3-(Dimethylamino)azetidin-1-yl]piperidin-1-yl}phenyl)amino]-5-ethynyl-8-phenylpyrido[2,3-d]pyrimidin-7-one] reads above 7.70.
